According to the supplement of paper PMC11348887:
Where a name gives a salt, the structure may show the parent alone. The list shows a part of the results. Cut-off read from the data, not from the text of the source: active = -2 or less and inactive = the rest. Single values are uncertain, as repeats are few or missing.
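Note: nuclei counted from DAPI counterstain by automated high-content image analysis, four fields per well at ×20 in 384-well plates, with sequential b-score then z-score normalization.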

Each compound was assayed on hPSC-derived cortical neurons (WA09) (assay: nuclei number (viability) z-score; higher = more surviving cells). Conditions: 5 µM; treatment: days 7-14 after plating, readout day 21.
For `CO[C@H]1C[C@@H]2CC[C@@H](C)[C@@](O)(O2)C(=O)C(=O)N2CCCC[C@H]2C(=O)O[C@H]([C@H](C)C[C@@H]2CC[C@@H](OP(C)(C)=O)[C@H](OC)C2)CC(=O)[C@H](C)/C=C(\C)[C@@H](O)[C@@H](OC)C(=O)[C@H](C)C[C@H](C)/C=C/C=C/C=C/1C` [Ridaforolimus (Deforolimus, MK-8669)], the “nuclei number (z-score)” value was inactive: -1.57. In the case of `CC(C)(C)NCC(O)c1ccc(O)c(CO)c1` (stereo unspecified) [Salbutamol Sulfate], the “nuclei number (z-score)” value is reported as inactive: 0.637. For `O=S(=O)(N=Cc1c(O)ccc2ccccc12)c1cccs1`, the “nuclei number (z-score)” value was inactive: 0.615. In the case of `CCS(=O)(=O)N1CCC([C@@H](C)n2c(C)c(C(=O)NCc3c(OC)cc(C)[nH]c3=O)c3ccccc32)CC1`, the “nuclei number (z-score)” value is reported as inactive: -0.0358. `Fc1ccc(CNc2ncnc3ccc(F)cc23)cc1` [Spautin-1] was tested, and the “nuclei number (z-score)” value was inactive: -0.312. In the case of `O=C1CCc2c(ccc3ccccc23)O1` [Splitomicin], the “nuclei number (z-score)” value is reported as inactive: 1.69. `CC[C@@H]1C(=O)N(C)c2cnc(Nc3ccc(C(=O)NC4CCN(C)CC4)cc3OC)nc2N1C1CCCC1` was tested, and the “nuclei number (z-score)” value was active: -2.26. With `O=C([O-])C(O)[C@H](O)[C@@H](O)[C@H](O)[C@H](O)CO.O=C([O-])C(O)[C@H](O)[C@@H](O)[C@H](O)[C@H](O)CO.[Ca+2]` (stereo partly specified) [Calcium Gluceptate] the “nuclei number (z-score)” value was inactive: -0.0892. In the case of `Cc1c(OCC(F)(F)F)ccnc1C[S+]([O-])c1nc2ccccc2[nH]1` (stereo unspecified) [Lansoprazole], the “nuclei number (z-score)” value is reported as inactive: 1.49. With `CC(=O)O[C@H]1Cc2ccccc2N(C(N)=O)c2ccccc21` [Eslicarbazepine Acetate] the “nuclei number (z-score)” value was inactive: 0.201. `CCOC(=O)c1ccc(O)cc1` [Ethylparaben] was tested, and the “nuclei number (z-score)” value was inactive: 2.97. With `COC(=O)Nc1nc2cc(C(=O)c3ccc(F)cc3)ccc2[nH]1` [Flubendazole] the “nuclei number (z-score)” value was inactive: 1.76. For `COc1ccc(COc2cc3oc(=O)c4cc(C(C)O)ccc4c3cc2OC)cc1` (stereo unspecified) [Palomid 529 (P529)], the “nuclei number (z-score)” value was inactive: 0.801. `NC1=N[C@@]2(c3cc(NC(=O)c4ccc(F)cn4)ccc3F)COC[C@H]2CS1` was tested, and the “nuclei number (z-score)” value was inactive: 3.53. In the case of `COc1ccc2cc1Oc1ccc(cc1)C[C@H]1c3c(cc4c(c3Oc3cc5c(cc3OC)CCN(C)[C@@H]5C2)OCO4)CCN1C` [Cepharanthine], the “nuclei number (z-score)” value is reported as active: -7.22. For `COc1ccccc1OCCNCC(O)COc1cccc2[nH]c3ccccc3c12` (stereo unspecified) [Carvedilol], the “nuclei number (z-score)” value was inactive: -1.28. In the case of `CC(C)c1nc(CN(C)C(=O)N[C@H](C(=O)N[C@@H](Cc2ccccc2)C[C@H](O)[C@H](Cc2ccccc2)NC(=O)OCc2cncs2)C(C)C)cs1` [Ritonavir], the “nuclei number (z-score)” value is reported as inactive: -0.0733. With `COc1ccc(-n2nc(C(N)=O)c3c2C(=O)N(c2ccc(N4CCCCC4=O)cc2)CC3)cc1` [Apixaban] the “nuclei number (z-score)” value was inactive: 0.0209. For `CC(C)CC(NC(=O)C(Cc1ccccc1)NC(=O)C(CCC(N)=O)NC(=O)C(Cc1ccc(O)cc1)NC(=O)C(C)NC(=O)CNC(=O)C(CCCCN)NC(=O)C(Cc1c[nH]c2ccccc12)NC(=O)C(NC(=O)C(Cc1c[nH]c2ccccc12)NC(=O)C(CCCCN)NC(=O)CNC(=O)C(CC(N)=O)NC(=O)C(CCC(=O)O)NC(=O)C(Cc1c[nH]c2ccccc12)NC(=O)C(NC(=O)C(Cc1c[nH]c2ccccc12)NC(=O)C(CO)NC(=O)CNC(=O)C1CCCN1C(=O)C(Cc1c[nH]c2ccccc12)NC(=O)C(CCC(N)=O)NC(=O)C(Cc1ccccc1)NC(=O)CNC(=O)C(N)Cc1c[nH]cn1)C(C)O)C(C)O)C(=O)NC(CCCCN)C(=O)NCC(=O)NCC(=O)NCC(=O)NCC(=O)NC(CO)C(=O)NC(CCCNC(=N)N)C(=O)NC(CCCNC(=N)N)C(=O)NC(CCCNC(=N)N)C(=O)NC(CCCNC(=N)N)C(=O)NC(CCCNC(=N)N)C(=O)NC(CCCNC(=N)N)C(=O)NC(CCCNC(=N)N)C(=O)NC(CCCNC(=N)N)C(=O)NC(CCCNC(=N)N)C(=O)O` (stereo unspecified), the “nuclei number (z-score)” value was active: -5.39. For `COc1ccc(C(C)=O)c(O)c1` [Paeonol], the “nuclei number (z-score)” value was inactive: 0.233. With `COc1ccc(CCCOC(Cn2ccnc2)c2ccc(OC)cc2)cc1` (stereo unspecified) the “nuclei number (z-score)” value was inactive: -0.422. `COc1c(O)cc2c(c1O)[C@@H]1O[C@H](CO)[C@@H](O)[C@H](O)[C@H]1OC2=O` [Bergenin] was tested, and the “nuclei number (z-score)” value was inactive: 0.902. In the case of `Nc1cccc(-c2cc3c(Oc4cccc(O)c4)ncnc3[nH]2)c1`, the “nuclei number (z-score)” value is reported as inactive: 0.24. `CC(C)[C@H]1CC[C@H](C(=O)N[C@H](Cc2ccccc2)C(=O)O)CC1` [Nateglinide] was tested, and the “nuclei number (z-score)” value was inactive: -0.489. In the case of `CCCCOc1ccc(OCCCN2CCOCC2)cc1` [Pramoxine HCl], the “nuclei number (z-score)” value is reported as inactive: -0.0206. In the case of `C[C@@H](O)[C@H]1C(=O)N2C(C(=O)OCOC(=O)C(C)(C)C)=C(SC3CN(C4=NCCS4)C3)[C@H](C)[C@H]12` [Tebipenem Pivoxil], the “nuclei number (z-score)” value is reported as inactive: 0.0777. For `CC1CCc2cc(F)cc3c(=O)c(C(=O)O)cn1c23` (stereo unspecified) [Flumequine], the “nuclei number (z-score)” value was inactive: 0.264. In the case of `CCCS(=O)(=O)Nc1ccc(F)c(C(=O)c2c[nH]c3ncc(Cl)cc23)c1F`, the “nuclei number (z-score)” value is reported as inactive: 1.94. `CCN1CCCC1CNC(=O)c1cc(S(=O)(=O)CC)c(N)cc1OC` (stereo unspecified) [Amisulpride] was tested, and the “nuclei number (z-score)” value was inactive: -0.255. In the case of `CC(C)(CO)C(O)C(=O)NCCCO` (racemic) [DL-Panthenol], the “nuclei number (z-score)” value is reported as inactive: 0.567. In the case of `Nc1nc(N)nc(-c2cc(Cl)ccc2Cl)n1` [Irsogladine], the “nuclei number (z-score)” value is reported as inactive: 1.56. For `CNC(=O)CN1CCC(Oc2cc3c(Nc4cccc(Cl)c4F)ncnc3cc2OC)CC1` [AZD8931 (Sapitinib)], the “nuclei number (z-score)” value was inactive: 2.61. In the case of `O=C(Nc1cc(Cl)cc2c1[nH]c1cnccc12)c1cccnc1`, the “nuclei number (z-score)” value is reported as inactive: 3.38. In the case of `CCc1c(C(=O)NCCc2ccc(N3CCCCC3)cc2)[nH]c2ccc(Cl)cc12`, the “nuclei number (z-score)” value is reported as inactive: -0.285. For `CN1CCN(c2ccc(C(=O)Nc3n[nH]c4ccc(Cc5cc(F)cc(F)c5)cc34)c(NC3CCOCC3)c2)CC1` [Entrectinib (RXDX-101)], the “nuclei number (z-score)” value was active: -5.3. With `Nc1ncnc2c1c(-c1cccc(OCc3ccccc3)c1)cn2C1CC(CN2CCCC2)C1` (stereo unspecified) the “nuclei number (z-score)” value was active: -3.4.
